# The list shows a part of the results. The main result of the screen is listed elsewhere. These columns were measured beside it and carry no call.
# Experiment: compounds producing H2O2 with reducing agent – biochemical, 10-point concentration response, NIH library profiling, artefact control for MLSCN library redox annotation, dose response (AID 1234)
# Conditions: DTT-dependent redox cycling H2O2, phenol red-HRP absorbance; H2O2 generation; at 50 µM; stronger effect = higher value
row,Structure (SMILES),activation
1,NC(=O)C1CCN(C2=C(Cl)C(=O)c3ccccc3C2=O)CC1,-1.77%
2,CCCCn1c(NS(=O)(=O)c2ccc(C)cc2)c(S(=O)(=O)c2ccccc2)c2nc3ccccc3nc21,127%
3,COc1cccc(NC(=O)C(OC(=O)c2ccc([N+](=O)[O-])o2)c2ccccc2)c1 (stereo not given),-1.08%
4,Oc1ccc(-c2onc(C(F)(F)F)c2-c2cscn2)c(O)c1,-1.17%
5,CC(C)CN(C(=O)COC(=O)c1ccc([N+](=O)[O-])o1)C1CCS(=O)(=O)C1 (stereo not given),15.3%
6,O=S(=O)(Nc1cc2nc3ccccc3nc2n1Cc1ccccc1)c1ccc(Cl)cc1,98.9%
7,O=C(O)c1ccc(NC2=C/C(=N/S(=O)(=O)c3ccccc3)c3ccccc3C2=O)cc1,127%
8,O=C(NN=C1CCCC1)c1n[nH]c2c1CCCC2,-1.68%
9,CC1(C)CC(=O)C=C(N2CCNCC2)C1,-0.68%
10,Cc1ccc(C(=O)c2c(C)oc3c2C(=O)C(=O)c2ccccc2-3)cc1,-0.96%
11,CC(=O)N(/N=C1\Sc2ccccc2C1=O)c1ccccc1C,130%
12,Cc1cc(C)c(S(=O)(=O)/N=C2/C=C(Sc3ncn[nH]3)C(=O)c3ccccc32)cc1C,115%
13,C=CCn1c(Cc2ccc(OC)cc2)nnc1SCC(=O)NCCc1ccccc1,-1.19%
14,C=CCn1c(NS(=O)(=O)c2ccccc2)c(S(=O)(=O)c2ccc(C)cc2)c2nc3ccccc3nc21,17.9%
15,O=C1C=C(N(CCO)Cc2ccccc2)c2ccccc2C1=O,116%
16,CCC(C)n1c(NC(=O)c2ccccc2)c(C#N)c2nc3ccccc3nc21 (stereo not given),0.29%
17,CCOc1ccc(NC(=S)Nc2ccc3nsnc3c2)cc1,90.2%
18,O=C(COC(=O)c1ccc([N+](=O)[O-])s1)NCc1ccccc1,71.1%
19,CC(=O)N(/N=C1\Sc2ccccc2C1=O)c1cccc(C)c1,122%
20,O=C(COC(=O)c1ccccc1OCc1ccccc1Cl)NC1CC1,0.57%
21,COC1=C(N)C(=O)c2nc(-c3nc(C(=O)O)c(C)c(-c4ccc(OC)c(OC)c4O)c3N)ccc2C1=O,122%
22,O=C1C(=O)c2ccc(-c3ccccc3)cc2-c2ccccc21,108%
23,Cc1oc2c(c1C(=O)c1ccccc1)C(=O)C(=O)c1ccccc1-2,-1.56%
24,COc1cccc(Oc2cncnc2-c2ccc(OC)cc2O)c1,-1.32%
25,Cn1nc(-c2ccc(Cl)cc2)nc2c(=O)n(C)c(=O)nc1-2,111%
